Experimental data published in US20040185460.

Assays:
[1] = target: myelin basic protein (UBI #13-104)
inactivated MKK4, P45985 = target: T1, inactivated MKK4, P45985
T1 chain: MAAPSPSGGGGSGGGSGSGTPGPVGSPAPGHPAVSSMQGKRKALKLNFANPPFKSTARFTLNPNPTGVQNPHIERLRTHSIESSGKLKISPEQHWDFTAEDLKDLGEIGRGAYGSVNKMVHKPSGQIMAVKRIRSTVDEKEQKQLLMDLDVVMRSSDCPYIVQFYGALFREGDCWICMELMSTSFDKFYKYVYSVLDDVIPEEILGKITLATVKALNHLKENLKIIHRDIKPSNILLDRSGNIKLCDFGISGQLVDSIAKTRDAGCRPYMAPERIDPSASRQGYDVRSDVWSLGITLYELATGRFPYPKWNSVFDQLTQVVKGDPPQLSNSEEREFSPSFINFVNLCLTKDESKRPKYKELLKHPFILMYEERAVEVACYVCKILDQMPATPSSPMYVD

B1: baculoviral human GST-MLK7KD/LZ (protein)
chain: [… about 200 residues …]PANYVAPCRPAASPAPPPSRPSSPVHVAFERLELKELIGAGGFGQVYRATWQGQEVAVKAARQDPEQDAAAAAESVRREARLFAMLRHPNIIELRGVCLQQPHLCLVLEFARGGALNRALAAANAAPDPRAPGPRRARRIPPHVLVNWAVQIARGMLYLHEEAFVPILHRDLKSSNILLLEKIEHDDICNKTLKITDFGLAREWHRTTKMSTAGTYAWMAPEVIKSSLFSKGSDIWSYGVLLWELLTGEVPYRGIDGLAVAYGVAVNKLTLPIPSTCPEPFAKLMKECWQQDPHIRPSFALILEQLTAIEGAVMTEMPQESFHSMQDDWKLEIQQMFDELRTKEKELRSREEELTRAALQQKSQEELLKRREQQLAEREIDVLERELNILIFQLNQE
**Q.** Which results are given for B1?
**A.** phosphorylation of myelin basic protein (radioactive counts, Multiscreen TCA in-plate assay) [1]: Both GST-MLK7KD and GST-MLK7KD/LZ were able to phosphorylate myelin basic protein; in vitro kinase cascade: phosphorylation/activation of MKK4, read as phosphorylated GST-JNK1β1(K55A) (phospho-specific JNK antibody, fluorescence) (inactivated MKK4, P45985): both GST-MLK7KD and GST-MLK7KD/LZ were able to phosphorylate MKK4 and as a consequence of this phosphorylation event, MKK4 was activated
